For assay [1], the system named is Candida albicans. Briefly: Checkerboard microdilution synergy (FIC). In kind it is cell-based. In general terms: Dilution methods test growth across graded concentrations, often in twofold steps.
Assay [2] relates to Aspergillus fumigatus. Briefly: Checkerboard microdilution synergy (FIC). The following applies: for MIC: Aspergillus fumigatus; for MIC / MIC azole alone: 48 h, 35° C.; for FICazole / MIC azole in combination: […] 10^5 cells/mL. It counts as cell-based.

This is an account of results in patent US20180185408A1, “ANTIFUNGAL NYLON-3 POLYMERS AND COMBINATION THERAPY USING THEM TO TREAT FUNGAL INFECTIONS” (priority 2016, published 2018).

SMILES strings stand for the structures. Several values for one entry are separate records, joined by “and”; a condition that tells them apart may be missing. Equal values may be shown once. Read-outs that look alike come from different tables or passages of the source.

Turning to `OC(Cn1cncn1)(Cn1cncn1)c1ccc(F)cc1F` [FLC, fluconazole], the “MIC azole in combination” value in assay [1] was less than 0.3 µg/mL; in assay [1] (MM:TM (40:60) with Fluconazole, isolate K1 (Fluconazole Resistant), […]10^5 cells/mL, 30° C.) it was 0.4 µg/mL; in assay [1] (NM20 with Fluconazole, C. albicans K1, […] 10^5 cells/mL) it was 0.4 µg/mL; in assay [1] (NM20 with Fluconazole, C. albicans SC5314, […] 10^5 cells/mL), 0.4 µg/mL; in assay [1] (Table 43, MM:TM with Fluconazole, isolate K1, […] 10^5 cells/mL) it was 0.4 µg/mL; in assay [1] (Table 43, MM:TM with Fluconazole, isolate SC5314, […] 10^5 cells/mL), less than 0.3 µg/mL.

`CC[C@@H]([C@H](C)O)n1ncn(-c2ccc(N3CCN(c4ccc(OC[C@@H]5CO[C@@](Cn6cncn6)(c6ccc(F)cc6F)C5)cc4)CC3)cc2)c1=O` [Posaconazole, posaconazole]: in assay [2] (read-out: MIC azole alone, CEA10, POS as single agent), the MIC was 1.07 µM. For the same compound, the MIC azole alone in assay [2] (F16216, POS as single agent, listed as POS) was 1.5 μg/mL and 2.14 μM. For the same compound, in assay [2] (MM:TM with posaconazole, isolate AF293 (Senstitive)), the FICazole is 0.500. The “MIC azole in combination” value was determined as 0.1 µg/mL in assay [2] (MM:TM with posaconazole, isolate CEA10 (Sensitive)); 0.1 µg/mL in assay [2] (MM:TM with posaconazole, isolate F11628 (Resistance)); 1.0 µg/mL in assay [2] (MM:TM with posaconazole, isolate F16216 (Resistance)).

With `CCC(C)n1ncn(-c2ccc(N3CCN(c4ccc(OCC5COC(Cn6cncn6)(c6ccc(Cl)cc6Cl)O5)cc4)CC3)cc2)c1=O` (centres unmarked) [Itraconazole, itraconazole], the minimal inhibitory concentration (MIC) in assay [2] (read-out: MIC azole alone, MM:TM with ITRA, isolate 08-12-12-13 Cyp51 [TR34/L98H], Avg., 48 hours) is 76.5 µM; in assay [2] (read-out: MIC azole alone, MM:TM with ITRA, isolate 08-19-02-61 Cyp51 [TR34/L98H], Avg., 48 hours), more than 68 µM; in assay [2] (read-out: MIC azole alone, MM:TM with ITRA, isolate 08-31-08-91 Cyp51 [TR34/L98H], Avg., 48 hours), more than 68 µM; in assay [2] (read-out: MIC azole alone, MM:TM with ITRA, isolate 08-36-03-25 Cyp51 [TR34/L98H], Avg., 48 hours), more than 68 µM; in assay [2] (read-out: MIC azole alone, MM:TM with ITRA, isolate 12-7505220 Cyp51 [TR34/L98H], Avg, 48 hours), 76.5 µM; in assay [2] (read-out: MIC azole alone, MM:TM with ITRA, isolate 12-7505446 Cyp51 [TR34/L98H], Avg., 48 hours), 19.1 µM. Moreover, the minimal inhibitory concentration (MIC) in assay [2] (read-out: MIC azole alone, MM:TM with ITRA, isolate D5 Cyp51 [G54E], Avg., 48 hours) was more than 68 µM; in assay [2] (read-out: MIC azole alone, MM:TM with ITRA, isolate D9 Cyp51 [M220K], Avg., 48 hours) it was more than 68 µM. Moreover, the MIC azole alone in assay [2] (F11628, ITRA as single agent) is >48 µg/mL and 72 µg/mL; in assay [2] (F16216, ITRA as single agent), >48 µg/mL and 64 µg/mL. Further, the FICazole was determined as 0.200 in assay [2] (MM:TM with Itraconazole, isolate AF293 (Senstitive)) and 0.100 in assay [2] (MM:TM with Itraconazole, isolate CEA10 (Sensitive)). In addition, the “MIC azole in combination” value in assay [2] (MM:TM with Itraconazole, isolate F11628 (Resistance)) was determined as 0.4 µg/mL; in assay [2] (MM:TM with Itraconazole, isolate F16216 (Resistance)), 32 µg/mL.

By MIC is commonly meant the least concentration at which growth counts as inhibited.
